Source: ChEMBL document CHEMBL4888484, “Replenishing the malaria drug discovery pipeline: Screening and hit evaluation of the MMV Hit Generation Library 1 (HGL1) against asexual blood stage Plasmodium falciparum ,using a nano luciferase reporter read-out” (2022)
Hit rate of the full screen: of about 150,000 compounds, about 540 (0.36%) showed an effect of 50% or more. The list shows a part of the results.

Tested on: Plasmodium falciparum
Assay: Primary screen in NF54 nanoGlo assay, in single point, at 2uM, 72h; a lower Z score goes with more inhibition
Type: functional, Erythrocyte
Conditions: timepoint 72 hour

SMILES | % Inhibition | Z score
CONC(=O)C1CC=CCC1c1nc2ccccc2s1 (stereo not given) | 3% | -0.54
CCc1cccc(NC(=O)CN2CCn3nnc(-c4nc(-c5ccsc5)no4)c3C2=O)c1 | -12% | 1.31
CC1CC1c1ccc(CNCc2ccncc2)o1 (stereo not given) | 2% | -0.31
CCC1(CC)CN(C(=O)CC2CCCCCC2)CCS1(=O)=O | -6% | 0.93
O=C(c1ccc2nc(-c3ccc(F)cc3)cn2c1)N1CCCC[C@@H]1CCO | -20% | 2.16
Cc1ccnc(OCC(=O)Nc2ccccc2C)n1 | 9% | -1.29
CN1CCN(c2cnn(CCOc3ccccc3)c(=O)c2)CC1 | -12% | 1.33
Cn1ncc(COc2cccc(N3CCCC3)c2)c1C(F)(F)F | -4% | 0.39
Cc1nc(C(=O)N(C)Cc2snnc2C)cs1 | -10% | 1.83
Cc1cccc(NC(=O)N2CCC(Cc3nccn3C)CC2)n1 | -6% | 0.6
Cc1cc(-c2cc(O)c3c(c2)CN(Cc2cnn(C)c2C)CCO3)nc2cc(F)ccc12 | -5% | 0.62
Cc1nn(Cc2cn(C3CCC(C)C3)nn2)c(C)c1C (stereo not given) | -8% | 1.16
O=C(c1cccnc1)N1CCO[C@@H](Cn2cccn2)C1 | -3% | 0.5
Cn1cc(C2CCCCN2CCOC2CCCCO2)cn1 (stereo not given) | 6% | -0.81
O=C1OCCN1c1cccc(C2OCCCO2)c1 | -4% | 0.62
COc1ccc(CN2CCCN(Cc3ccc(OC)cc3)C2c2cc(Cl)cc(Cl)c2O)cc1 | -7% | 0.78
Cc1scc2nc(C3CCC3)nc(N3CCC(C(=O)NCc4ccccc4)CC3)c12 | 7% | -1.15
CN1C[C@@H](C(=O)N2CCC(CNC(=O)C3CCC3)CC2)Oc2ccccc21 | -17% | 1.66
N#Cc1ccc(CON=C(N)c2ccc(OCc3cccnc3)cc2)cc1 | -3% | 0.27
Cc1ccc(C(=O)NS(=O)(=O)[C@@H](C)C(F)(F)F)c(F)c1 | 4% | -0.71
Cc1cnc(CC[C@H]2CCCN2C(=O)CCCc2ccccc2)n1C | 34% | -4.61
O=C(CCCn1cncn1)N[C@H]1CN(C(=O)c2ccccc2F)C[C@@H]1C1CC1 | -2% | 0.29
CC(C)COc1ncc(C(=O)N2CCCC2CC(C)O)cc1Cl (stereo not given) | -10% | 1.22
Cc1nn(Cc2ccccc2)c(C)c1[C@@H]1C=C[C@@H](NC(=O)c2ccc(F)c(Cl)c2)C1 | -11% | 1.68
CC[C@@](C)(CNC(=O)c1ccncc1F)NC(=O)c1ccncc1F | 1% | -0.08
Cc1ccn(Cc2nc(-c3ccco3)no2)c(=O)c1C#N | 27% | -3.66
Cn1cccc1C(=O)N1CC[C@H](Oc2cc(N3CCOCC3)ncn2)C1 | -6% | 0.71
Cn1ccnc1C(=O)NCc1nc(Cc2cccs2)no1 | -2% | 0.39

SMILES | % Inhibition | Z score
CCc1nc2cc(NC(C)=O)cc(C(=O)O)c2n1Cc1cccnc1 | -9% | 1.61
CC(C)N(CCN(C)C)C(=O)Cn1ccc(C(F)(F)F)n1 | -16% | 3.11
COc1ccc(-c2nc3cc(C)ccc3cc2CN2CCN(C)CC2)cc1OC | 2% | -0.28
c1ncnc(NC2(CN3CCCC3)CCCCC2)n1 | -13% | 2.57
Cc1nnc(NCCc2cnn(-c3ccccc3)c2)o1 | -11% | 2.18
CCn1cc(CN2CCN3C(=O)N(c4ccccc4)C(=O)[C@@H]3C2)cn1 | -2% | 0.24
CC(=O)N1CCN(c2nnc(-c3cccnc3)n2Cc2ccc(Cl)cc2)CC1 | -12% | 2.35
O=C(CCC1CCCCC1)N[C@@]1(C(F)(F)F)NC(c2ccccc2)=NC1=O | -29% | 3.36
Cc1nn(-c2ccccc2)c(Oc2ccc(Cl)cc2)c1CN(C(=O)c1ccccc1F)C1CC1 | 25% | -2.37
COC(=O)CC(C)(C)NS(=O)(=O)c1c(F)c(F)cc(F)c1F | -3% | 0.54
NC(=O)c1cccc(CN2C3CCC2CC(O)C3)c1 (stereo not given) | -9% | 0.89
COc1ccccc1CN1CC(=O)N2CC[C@@H](O)C[C@H]2C1=O | -6% | 1.1
O=C(CCC1CCN(C(=O)c2cnn[nH]2)CC1)N1CCCC1 | -8% | 0.94
O=C(Nc1ccc2c(c1)OCCCO2)c1cc2c(s1)CCCC2 | -6% | 1.19
Cc1ccc(C(=O)Nc2ccc(OCc3ccccc3)cc2)s1 | -13% | 2.58
N#CCC(=O)N1CCC(Cc2nc3ccccc3[nH]2)CC1 | -14% | 2.29
CC(NC(=O)CC(c1cccc(C(F)(F)F)c1)c1c[nH]c2ccccc12)c1ccccc1 (stereo not given) | 8% | -0.75
CN(C)c1cccc(C(=O)N[C@H]2CCN(c3cc(-c4ccc(F)cc4)n[nH]3)C2)c1 | -25% | 2.47
COc1ccc2c(c1)CN(C(=O)c1csc(C3CC3)n1)CCO2 | -11% | 1.44
O=c1cc(-c2ccccc2)[nH]n1-c1nc(-c2ccccc2)cc(-c2ccccc2O)n1 | -8% | 1.58
Cc1ccccc1CC(=O)Nc1ccc(C(=O)N2CCCCC2)cc1 | -13% | 1.87
Cc1ccccc1C(=O)N(CCc1cscn1)Cc1cccnc1 | -2% | 0.29
c1ccc2c(c1)CCN(c1ncncc1-c1nc(-c3ccncc3)no1)C2 | -21% | 2.39
COC(=O)[C@@H]1C[C@@H](O)CN1C(C)CCc1cccc(F)c1 (stereo not given in full) | 0% | -0.04
O=C(C1CC=CCC1)N1CCC(S(=O)(=O)c2ccccc2)C1 (stereo not given) | 0% | -0.03
O=C(O)C1(n2ccc(C(F)(F)F)n2)CCCCC1 | -18% | 1.9
COc1ccc2[nH]c3c(c2c1)CCN1C(=O)N([C@@H](C)C(=O)NC2CCN(Cc4ccccc4)CC2)C(=O)[C@]31C | 2% | -0.26
